Data published in PubChem BioAssay AID651820 (National Center for Advancing Translational Sciences (NCATS), 2012).
Where “and” joins values, the source holds several entries; their conditions need not be identical. Equal values may be shown once. About 12,000 (3.5%) of roughly 340,000 compounds were called active. The shares of active, inactive and inconclusive entries below differ from those in the screen. The call rests on the fitted dose curve; in most records, active means well fitted inhibition curve with a large enough effect; inconclusive means small, poorly fitted or top-dose-only effect, or another doubt; inactive means no such curve, though single readings can be large or run the other way. Potencies beside an inconclusive call are fits to weak or partial responses and may not hold up.

Assay: qHTS Assay for Inhibitors of Hepatitis C Virus (HCV)
Conditions: Huh7.5.1 HCVcc-Cre (HCVcc is cell-culture hepatitis C virus) infection, luciferase reporter, 44 h; activity change, negative = inhibition: at 41.8 µM (top of the series) unless noted
In short: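 HCVcc-Cre virus at an moi near 0.5 was added right after compound to cells cultured 4 h from seeding (1,000 cells/well). Luciferase activity was determined 44 h later, 15 min after substrate addition at RT.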
On the % scale 0 is the no-effect control and ±100 the full control effect; potency means the concentration at half of the fitted maximal effect; tags describe the fitted curve by direction and shape.

For `O=C(CN1CCN(CC(=O)Nc2ccccc2Cl)CC1)Nc1ccc2c(c1)OCCO2`, which “activity change, negative = inhibition” value is on record?
The value was inactive: 0.0483%.

With `CCn1c(O)c(/C=N/N=C/c2ccc(OC)cc2)c2cc(C3=NNC(=O)CC3)ccc21` as the compound, how does the Potency read?
Its Potency is inconclusive: 0.562 µM [inhibitor, full curve, poor fit].

With `COc1ccc(/C=N/NC(=O)c2ccccc2O)cc1Cn1cc(Cl)cn1` as the compound, how does the “activity change, negative = inhibition” value read?
The value was inactive: 22.1%.

Which Potency does the source give for `Cn1c(N2CCCC2)nc2c1c(=O)n(Cc1ccc(Cl)cc1)c(=O)n2C` here?
Its Potency is inconclusive: 11.2 µM [inhibitor, partial curve].

Which Potency does the source give for `N#Cc1c(OCC(=O)c2ccccc2)nc2c(c1-c1ccco1)CCc1ccccc1-2` here?
Its Potency is inconclusive: 31.6 µM [inhibitor, single point].

With `COc1cc(/C=N/Nc2nc(Nc3ccc(C)cc3)nc(-n3nc(C)cc3C)n2)cc(OC)c1OC` as the compound, how does the Potency read?
Its Potency is inconclusive: 10 µM [inhibitor, partial curve].

For `COc1ccc(O)c(/C=N/NC(=O)c2c(C)nnn2-c2nonc2N)c1`, which Potency is on record?
Its Potency is inconclusive: 31.6 µM [inhibitor, partial curve, poor fit].

Which Potency does the source give for `Cc1ccc(-c2onc3ccc(Br)cc23)cc1` here?
The Potency was inconclusive: 31.6 µM [inhibitor, single point].

Which “activity change, negative = inhibition” value does the source give for `COc1ccc(NC(=O)CSc2nnc(-c3cccc(O)c3)o2)cc1` here?
The value was inactive: 0.775%.

Which “activity change, negative = inhibition” value does the source give for `CCN(CC)CCCNC(=O)/C=C/C(=O)O` here?
The value was inactive: -4.28%.

With `Cc1ccc(-n2c(C)cc(C(=O)CN3CCOCC3)c2C)cc1C` as the compound, how does the “activity change, negative = inhibition” value read?
The value was inactive: -18.1%.

With `Cc1ccc(C)c(Nc2nc(-c3cccnc3)cs2)c1` as the compound, how does the Potency read?
The Potency was inconclusive: 14.1 µM [inhibitor, single point].

Which Potency does the source give for `CC(C)COC(=O)c1ccc2c(c1O)C(=O)c1ccccc1C2=O` here?
Its Potency is inconclusive: 14.1 µM [inhibitor, partial curve].

With `CC(C)(C)CC(C)(C)NC(=O)CSCC(=O)Nc1ccc2ccccc2c1` as the compound, how does the “activity change, negative = inhibition” value read?
The value was inactive: 7.57%.

Which “activity change, negative = inhibition” value does the source give for `CC1=NN(c2nc(-c3ccc(Cl)cc3)cs2)C(=O)C1` here?
Its value is inactive: 15.9%.

With `Cc1oc2c(cc(NS(=O)(=O)c3ccc4c5c(cccc35)C(=O)N4)c3ccccc32)c1C(=O)OC(C)C` as the compound, how does the Potency read?
The Potency was inconclusive: 11.2 µM [inhibitor, single point].

With `O=C(NC1CC1)c1cccc2c1C(=O)c1ccc(N3CCC(Cc4ccccc4)CC3)cc1S2(=O)=O` as the compound, how does the Potency read?
The Potency was active: 10 µM.

With `CCCc1nc(SCC(=O)Nc2cc(C)on2)c2ccccc2n1` as the compound, how does the Potency read?
Its Potency is inconclusive: 12.6 µM [inhibitor, partial curve].

For `Cc1cc(C)c(S(=O)(=O)NCc2cn3ccccc3n2)c(C)c1`, which “activity change, negative = inhibition” value is on record?
The value was inactive: 8.73%.

Which Potency does the source give for `COc1ccc(-c2nn(C)c(=O)c3ccccc23)cc1NC(=O)COc1ccc(C)cc1` here?
The Potency was inconclusive: 3.55 µM [inhibitor, full curve].

For `C=CCN=C1CCCc2c1[nH]c1ccc(C)cc21`, which Potency is on record?
Its Potency is inconclusive: 14.1 µM [inhibitor, single point].

With `CC(C)CN(C(=O)COC(=O)Cc1ccc(Cl)cc1)c1c(N)n(Cc2ccccc2)c(=O)[nH]c1=O` as the compound, how does the Potency read?
The Potency was inconclusive: 31.6 µM [inhibitor, single point].

Which “activity change, negative = inhibition” value does the source give for `Cc1cc(C)cc(NC(=O)c2ccc(NC3=NC4CS(=O)(=O)CC4S3)cc2)c1` (stereo unspecified) here?
The value was inactive: 12.8%.

Which Potency does the source give for `O=C1CC(c2ccc(F)cc2)c2cc3c(cc2N1)CCC3` (stereo unspecified) here?
The Potency was inconclusive: 31.6 µM [inhibitor, single point].

With `CCOC(=O)c1cnc(SCc2nc(N)nc(Nc3ccc(OC)cc3)n2)nc1N` as the compound, how does the Potency read?
Its Potency is inconclusive: 11.2 µM [inhibitor, single point].

Which Potency does the source give for `COc1cc(OC)cc(C(=O)NCC(=O)NCCN2C(=O)S/C(=C\c3ccccc3Cl)C2=O)c1` here?
The Potency was active: 10 µM.

For `CCn1c2ccccc2c2cc(/C=N/NC(=O)c3ccncc3)ccc21`, which Potency is on record?
Its Potency is inconclusive: 15.8 µM [inhibitor, partial curve].

Which Potency does the source give for `CCOC(=O)c1ccc(NC(=O)c2cc(OC)c(OC)c(OC)c2Br)cc1` here?
Its Potency is inconclusive: 0.501 µM [inhibitor, full curve].

With `O=C(CCl)NCc1c(Cl)cccc1-n1cccc1` as the compound, how does the Potency read?
Its Potency is inconclusive: 10 µM [inhibitor, partial curve].

Which “activity change, negative = inhibition” value does the source give for `O=C1N=C(N2CCCCC2)SC1=C1CCCC1` here?
The value was inactive: -5.19%.

Which Potency does the source give for `Cc1ccc2cc(CCNC(=O)c3ccc(S(=O)(=O)N4CCOCC4)cc3)c(=O)[nH]c2c1C` here?
Its Potency is inconclusive: 31.6 µM [inhibitor, single point].

With `CNc1ccc([N+](=O)[O-])cc1-c1nc2ccccc2[nH]c1=O` as the compound, how does the “activity change, negative = inhibition” value read?
The value was inactive: 1.49%.

For `O=C(NCc1ccco1)c1cc([N+](=O)[O-])ccc1N1CCCCC1`, which Potency is on record?
Its Potency is inconclusive: 8.91 µM [inhibitor, partial curve].

Which “activity change, negative = inhibition” value does the source give for `Cc1ccc(C(=O)Nc2ccc(O)c(C(=O)O)c2)o1` here?
Its value is inactive: 14.5%.

With `COc1ccc2nc(C)cc(Sc3nc4ccccc4s3)c2c1` as the compound, how does the Potency read?
Its Potency is inconclusive: 11.2 µM [inhibitor, partial curve].

Which “activity change, negative = inhibition” value does the source give for `CN1CCN(c2nc3ccccn3c(=O)c2C=C(C#N)C#N)CC1` here?
Its value is inactive: 19.2%.

Which Potency does the source give for `CCOc1ccc2nc(N3CCC(C(=O)N4CCN(C(=O)c5ccco5)CC4)CC3)sc2c1` here?
Its Potency is inconclusive: 12.6 µM [inhibitor, partial curve] and inconclusive: 31.6 µM [inhibitor, single point].

Which Potency does the source give for `COc1ccccc1NS(=O)(=O)c1ccc2oc(SCc3ccc(F)cc3)nc2c1` here?
The Potency was active: 35.5 µM.

Which “activity change, negative = inhibition” value does the source give for `COc1cccc(-n2c(SCC(=O)O)nnc2-c2cccnc2)c1` here?
Its value is inactive: 6.5%.

For `CC(=O)c1c(N2CCN(c3cccc(Cl)c3)CC2)nc(=S)n(-c2ccccc2)c1C`, which Potency is on record?
The Potency was inconclusive: 22.4 µM [inhibitor, single point].

Which “activity change, negative = inhibition” value does the source give for `CCC(=O)c1ccccc1OCC(=O)Nc1c(C)cccc1C` here?
The value was inactive: 3.83%.

Which Potency does the source give for `Cc1[nH]c2ccccc2c1C1=CCNCC1` here?
The Potency was active: 11.2 µM.

For `CC(C)=CCC12Oc3cc(O)ccc3C1(O)Oc1cc(O)c([C@H]3C=C(C)CC(c4ccc(O)cc4O)[C@H]3C(=O)c3ccc(O)cc3O)c(O)c1C2=O` (stereo partly specified), which Potency is on record?
The Potency was active: 12.6 µM.

With `O=C(CSCC(=O)N1CCCc2ccccc21)Nc1nc(-c2ccccc2)cs1` as the compound, how does the Potency read?
Its Potency is inconclusive: 31.6 µM [inhibitor, single point].

For `CCCSc1nc(C)cc(C)c1S(=O)(=O)c1ccccc1C`, which “activity change, negative = inhibition” value is on record?
Its value is inactive: -22.5%.

Which Potency does the source give for `Oc1ccc(/C=N/N(Cc2ccccc2)c2ccccc2)c(O)c1O` here?
The Potency was inconclusive: 31.6 µM [inhibitor, single point].

Which Potency does the source give for `CC(C)(C)c1ccc(OCc2ccc(C(=O)N3CCOCC3)o2)cc1` here?
The Potency was inconclusive: 31.6 µM [inhibitor, single point].

With `O=C(CSc1ccccc1)Nc1ccc2c(c1)OCO2` as the compound, how does the “activity change, negative = inhibition” value read?
The value was inactive: -0.145%.

Which Potency does the source give for `COc1ccc(C(=O)Nc2ccc(C)c(S(=O)(=O)N3CCOCC3)c2)cc1S(=O)(=O)N1CCCC1` here?
Its Potency is inconclusive: 31.6 µM [inhibitor, single point].

For `Cc1ccc(-n2cc(CN(C)Cc3ncc[nH]3)c(-c3cccc(C)c3)n2)cc1`, which Potency is on record?
Its Potency is inconclusive: 25.1 µM [inhibitor, single point].

For `COc1ccc(OC)c(C(=O)NC2CC(C)(C)Cc3c2cnn3-c2ccccc2)c1` (stereo unspecified), which Potency is on record?
Its Potency is active: 12.6 µM.

Which Potency does the source give for `CCOc1cc(CNCc2cc(OC)cc(OC)c2)ccc1OC` here?
The Potency was active: 0.562 µM.

With `Cc1cc(C(=O)Nc2ccc(F)cc2C)cs1` as the compound, how does the “activity change, negative = inhibition” value read?
Its value is inactive: -6.9%.

Which Potency does the source give for `CCn1c(-c2ccccc2)ccc(C#N)c1=O` here?
The Potency was inconclusive: 14.1 µM [inhibitor, single point].

With `CSc1ccccc1OCc1cc(C(=O)NCCc2nc(C)cc(C)n2)no1` as the compound, how does the Potency read?
The Potency was inconclusive: 7.94 µM [inhibitor, partial curve].

Which activity change, negative = inhibition does the source give for `Cc1ccnc(NC(=O)C(C)N2C(=O)c3ccccc3S2(=O)=O)c1` (stereo unspecified) here?
Its activity change, negative = inhibition is inactive: -6.34% [at 8.37 µM].

With `O=C(Nc1cc(N2CCCCC2)ncn1)c1ccccc1` as the compound, how does the “activity change, negative = inhibition” value read?
Its value is inactive: -18.1%.

Which Potency does the source give for `Cc1ccc(C)c(NC(=S)NC(NC(=O)OCc2ccccc2)C(Cl)(Cl)Cl)c1` (stereo unspecified) here?
The Potency was inconclusive: 25.1 µM [inhibitor, single point].

Which Potency does the source give for `Cc1cc(N2CCN(S(=O)(=O)c3ccc(Br)cc3)CC2)n2ncnc2n1` here?
Its Potency is inconclusive: 3.16 µM [inhibitor, single point].

With `CC(C)[C@@H](COc1ccccc1)N1CCN(Cc2ccccc2)CCC1=O` as the compound, how does the “activity change, negative = inhibition” value read?
Its value is inactive: -5.98%.

Which “activity change, negative = inhibition” value does the source give for `O=C(O)CN(c1cccc(C(F)(F)F)c1)S(=O)(=O)c1ccccc1` here?
The value was inactive: 13.5%.

For `Cc1c(C)c2ccc(OCC(=O)Nc3cccnc3)c(C)c2oc1=O`, which Potency is on record?
The Potency was inconclusive: 22.4 µM [inhibitor, single point].

For `COc1ccc(C(=O)NNC(=S)NC(=O)c2ccc(Br)o2)cc1OC`, which Potency is on record?
Its Potency is inconclusive: 0.562 µM [inhibitor, full curve, poor fit].

With `N#CC(C#N)=C/C=C(\Nc1ccc(Cl)cc1)c1ccc(Cl)cc1` as the compound, how does the “activity change, negative = inhibition” value read?
The value was inactive: -13.1%.

With `c1ccc2c(c1)OCC(CNc1ncnc3nc[nH]c13)O2` (stereo unspecified) as the compound, how does the Potency read?
Its Potency is inconclusive: 31.6 µM [inhibitor, single point].

Which Potency does the source give for `CC(=O)NNC(=O)c1csc(Cc2c(Cl)sc3ccc(Cl)cc23)n1` here?
The Potency was inconclusive: 3.98 µM [inhibitor, partial curve, poor fit].

Which Potency does the source give for `CCc1ccc(-c2csc(NC(=O)C3CCCO3)c2C(=O)OC(C)C)cc1` (stereo unspecified) here?
Its Potency is inconclusive: 31.6 µM [inhibitor, single point].

For `O=C1Cc2ccccc2Sc2c(OCCN3CCCCC3)cccc21`, which Potency is on record?
The Potency was inconclusive: 20 µM [inhibitor, single point].

For `COc1ccc(OC)c(NC(=O)Cc2coc3ccc4ccccc4c23)c1`, which Potency is on record?
The Potency was inconclusive: 10 µM [inhibitor, partial curve].

With `Cc1ccc(S(=O)(=O)N2C[C@@H]3CCCC[C@@H]3[C@@H](C)[C@H]2c2cn(Cc3ccccc3)c3ccc(F)cc23)cc1` as the compound, how does the Potency read?
Its Potency is inconclusive: 22.4 µM [inhibitor, partial curve, poor fit].

Which Potency does the source give for `O=C(Nc1cc(Cl)ccc1-n1cncn1)c1cccc(S(=O)(=O)N2CCOCC2)c1` here?
Its Potency is inconclusive: 31.6 µM [inhibitor, single point].
